The source of these data is ChEMBL document CHEMBL4888484, “Replenishing the malaria drug discovery pipeline: Screening and hit evaluation of the MMV Hit Generation Library 1 (HGL1) against asexual blood stage Plasmodium falciparum ,using a nano luciferase reporter read-out” (2022).

For orientation: % Inhibition means the change of the read-out against control, counted positive when it falls.

Hit rate of the full screen: of about 150,000 compounds, about 540 (0.36%) showed an effect of 50% or more. This is one part of the list.

This test relates to Plasmodium falciparum. Nature of the test: Primary screen in NF54 nanoGlo assay, in single point, at 2uM, 72h; a lower Z score goes with more inhibition. The test is classed as functional, Erythrocyte. The following applies: timepoint 72 hour.
Consider `CCOC[C@H]1CCCCN1c1nc(C)ns1`, for which the “% Inhibition” value is -1% and the Z score is recorded as 0.08.
The like results for `CC(C)(C)c1nccc(N2CC(=O)NC3CCCCC32)n1` (stereo not given) were, in that order, -14% and 1.64.
Turning to `O=C1c2ccc(Cl)cc2C(=O)N1CC1CCCCC1`, the “% Inhibition” value stood at 3% and the Z score was -0.47.
For `CCN(CC)S(=O)(=O)c1ccc(C(=O)NC(C)(C)CC)cc1` the same measures were -3% and 0.51.
Take `CN1CCN(CCn2c(-c3ccccc3)cn3c4ccccc4nc23)CC1`: the “% Inhibition” value was -4% and the Z score amounted to 0.62.
For `Cc1ccccc1NC(=O)N1CCC2(CC1)NC(=O)c1ccccc1N2C` the same measures were -7% and 0.83.
The like results for `c1ccc(-c2noc(NC3CC3)n2)cc1` were, in that order, -8% and 1.68.
The like results for `CCC[C@H](C)C(=O)N(C)C1CCN(c2ccccn2)CC1` were, in that order, -16% and 2.46.
Consider `CN(C(=O)c1c(F)c(F)cc(F)c1F)c1ncccc1F`, for which the “% Inhibition” value is on record as -5% and the Z score is reported as 0.84.
The like results for `O=C(Nc1cccc2cccnc12)C1CN(c2nc3ccccc3s2)C1` were, in that order, -11% and 1.73.
The like results for `CC1(C)C[C@@](C)(c2ccccc2)c2ccccc2N1C(=O)Cc1cccc2ccccc12` were, in that order, 19% and -2.51.
For `CC(C)(C)CCCC(=O)NCCn1cnnc1C1CC1` the same measures were -7% and 1.32.
For `CCC1(CC)OC2c3cc(Cl)cc(Cl)c3OC(C)N2c2ccccc21` (stereo not given), the “% Inhibition” value is reported as -8% and the Z score is listed as 0.97.
As for `CCC(CC)CNC(=O)C(=O)N1CCO[C@@H](C)C1`, the “% Inhibition” value amounted to 24% and the Z score is -3.67.
The like results for `Cc1cccc(NCCCNc2ccccn2)n1` were, in that order, -5% and 0.85.
For `COc1cc(C(=O)N[C@@H]2[C@@H]3CCO[C@@H]3[C@H]2NC(C)=O)ccn1`, the “% Inhibition” value is reported as -5% and the Z score was found to be 0.94.
As for `Cc1ccc(C)c(C(=O)N2C[C@H]3CC[C@@H](C2)N(Cc2ccccn2)C3)c1`, the “% Inhibition” value came to 0% and the Z score is listed as -0.04.
`COc1cc2c(c(OC)c1OC)CCN(c1nc(C)cnc1C)CC2`: the “% Inhibition” value is -18% and the Z score is recorded as 2.09.
`O=C(NCCCn1cncn1)C1CCCC1`: the “% Inhibition” value is 0% and the Z score worked out at 0.03.
The like results for `Cc1noc(CCCC(=O)N(C2CC2)[C@H]2CCc3ccccc32)n1` were, in that order, 3% and -0.5.
For `O=C(c1cccc(Br)c1)N1CCCN(c2nc(C3CCOCC3)nc3c2cnn3-c2ccccc2)CC1` the same measures were -2% and 0.32.
The like results for `O=C(O)CCc1cc2n(n1)CCCN(Cc1ccc(C3CCCC3)s1)C2` were, in that order, -12% and 1.79.
Regarding `CN(C)S(=O)(=O)NCCCC1CCCCC1`, the “% Inhibition” value is listed as -12% and the Z score was 1.85.
As to `N#Cc1ccc(NCCNC(=O)c2cnccn2)nc1`, the “% Inhibition” value was -5% and the Z score is 0.63.
The like results for `Cc1nn(-c2ccccc2)c(C)c1C(=O)Nc1ccc(OCc2ccccc2)cc1` were, in that order, -3% and 0.5.
For `CN(Cc1ccon1)C(=O)c1ccc(N2CCCC2)nc1` the same measures were -2% and 0.2.
In the case of `CS(=O)(=O)CC1(COc2ccc([C@@H]3CCC(=O)N3)cc2)CC1`, the “% Inhibition” value is given as -5% and the Z score was determined as 0.71.
For `COc1cc([C@@H]2C3=C(O)N(C(C)=O)CC3=Nc3cccc4c3c2cn4CCC(C)C)cc(OC)c1OC` the same measures were 0% and -0.02.
For `O=C(Cc1c(F)cccc1Cl)NC(Cc1ccncc1)[C@H]1C[C@@H](O)C1` (stereo not given in full) the same measures were -1% and 0.14.
The like results for `COCCCNC(=O)[C@@H]1CC2(CCN(C(=O)c3cc(C)on3)CC2)C(=O)N1C` were, in that order, -1% and 0.12.
Consider `Cc1cc(N)n(CC(=O)N[C@H]2COCC[C@@H]2Oc2ccccn2)n1`, for which the “% Inhibition” value is 0% and the Z score was -0.06.
For `O=C(c1ccc(-c2ccc(O)cc2F)cc1)N1CCN([C@H]2CCNC2)CC1` the same measures were -14% and 1.57.
For `CN1CCOCC1C(=O)OC(C1CC1)C(F)(F)F` (stereo not given) the same measures were 5% and -0.5.
The like results for `O=C(NCc1nccs1)N1CCN(S(=O)(=O)c2ccccc2)CC1` were, in that order, -10% and 1.32.
Take `O=c1c(-c2ccccc2)c(O)cc(-c2ccncc2)n1-c1ccc(Cl)cc1`: the “% Inhibition” value is -14% and the Z score was determined as 1.61.
For `O=c1c2cc3c(nc2ncn1CCN1CCOCC1)CCCC3`, the “% Inhibition” value was -6% and the Z score worked out at 0.83.
The like results for `Cc1noc(CN2N=C(C(=O)N3CCCCC3)S(=O)(=O)c3ccccc32)n1` were, in that order, -3% and 0.4.
For `CC1(C)CN(Cc2ncccn2)CC[C@]1(C)O` the same measures were -12% and 2.22.
The like results for `Cn1nc(C2CC2)nc1COc1cccn2ccnc12` were, in that order, 17% and -2.18.
In the case of `CCn1ccc2ccc(CCC(=O)NCC3CC3)cc21`, the “% Inhibition” value worked out at 8% and the Z score is listed as -0.86.
The like results for `N#Cc1ccccc1NC(=O)c1cc(S(=O)(=O)N2CCCCC2)cs1` were, in that order, -28% and 2.45.
As for `OB(O)c1ccc(-n2nccc2C2CC2)cc1`, the “% Inhibition” value was determined as 25% and the Z score is listed as -2.84.
The like results for `C[C@@H]1CN(C(=O)NCc2ccc(F)cc2)C[C@]1(C)O` were, in that order, -2% and 0.4.
For `COc1nc(-c2ccc3c(c2)OCO3)n(-c2ccc(NC(=O)c3ccc(F)cc3)cc2)n1` the same measures were -12% and 1.4.
For `Cc1c(-c2nnc(C(=O)N[C@@H](C)Cc3ccco3)o2)oc2c(C)cccc12`, the “% Inhibition” value is 5% and the Z score is given as -0.59.
For `O=C(c1cc[nH]n1)N1CC[C@H](OCCCc2ccccc2)C1`, the “% Inhibition” value was found to be 10% and the Z score was -1.83.
The like results for `O=C(CCCn1cnnn1)Nc1nc2ccc(F)cc2s1` were, in that order, -14% and 1.69.
Take `CN1CCN(C(=O)CC[C@H]2CCCN(C(=O)c3cc(C#N)cn3C)C2)CC1`: the “% Inhibition” value is -4% and the Z score came to 0.66.
For `FC(F)(F)COc1ccc(OCc2noc3c2CCCC3)cc1` the same measures were -6% and 1.02.
For `COc1ccc(CN2CC[C@]3(OC)CC[C@H](Oc4ccccn4)C[C@H]23)c(F)c1` the same measures were -4% and 0.67.
In the case of `CCN1CCCN(C(=O)c2ccc(OC)cc2)CC12CCOCC2`, the “% Inhibition” value is listed as -2% and the Z score is 0.19.
For `OCC1(O)CN(c2nc(C(F)F)nc3ccc(Cl)cc23)C1` the same measures were -8% and 0.9.
For `CCc1ccc(OCCN(C)C(=O)c2ncccc2C)cc1` the same measures were -6% and 0.76.
For `O=C(NCCc1nc(-c2ccccc2)no1)c1cn(Cc2cccc3ccccc23)nn1` the same measures were 6% and -0.83.
Take `COCCc1nc(-c2ccc(N3CCN(C)CC3)cc2)n(C(C)(C)C)n1`: the “% Inhibition” value was determined as 18% and the Z score is reported as -2.39.
Turning to `C[C@H]1CCN(c2ccc(NC(=O)NCC3(CO)CC3)cc2)C1`, the “% Inhibition” value was -22% and the Z score was found to be 2.25.
The like results for `Cc1ccc(NC(=O)c2ccc(=O)n(CCC(=O)N3CCC(C)CC3)n2)cc1C` were, in that order, -10% and 1.38.
As to `O=C(c1cccc(Br)c1)N1CCC(n2nccn2)CC1`, the “% Inhibition” value is on record as -6% and the Z score was 0.72.
The like results for `CO[C@H]1C[C@@H](CO)N(Cc2nnc(C)s2)C1` were, in that order, 2% and -0.23.
For `Cc1cc(C)c(S(=O)(=O)N2CCc3c(c(CN(C(=O)c4ccc(F)cc4)c4ccccc4)nn3C)C2)c(C)c1` the same measures were -9% and 0.78.
The like results for `Fc1ccc(CNc2ccc(-c3nc(-c4ccccc4)no3)nn2)cc1` were, in that order, 2% and -0.22.
Take `Cc1ccc(NC(=NC(=O)C(Cl)(Cl)Cl)Nc2ccc(C)cc2)cc1`: the “% Inhibition” value is -9% and the Z score was found to be 1.09.
The like results for `CC(C)COc1ccc(C(C)(C)C(=O)N2C[C@H]3CNC[C@H]3C2)cc1` were, in that order, 3% and -0.5.
The like results for `CCc1ccc(CNC[C@]2(c3cccc(F)c3)CCOC2)nc1` were, in that order, 4% and -0.55.
For `COc1ccc2c(c1)N1CCN(Cc3ccc(F)cc3)CC1C(C(=O)NCc1ccncc1)C2` (stereo not given) the same measures were 5% and -0.67.
For `Cc1ncccc1OCCO[C@@H]1CCCCO1`, the “% Inhibition” value is -16% and the Z score is given as 1.84.
Regarding `O=C(Nc1cccnc1)c1ccnc(OCC2CC2)c1`, the “% Inhibition” value is -30% and the Z score is 5.61.
Take `O=C(NCCNc1cc(N2CCCC2)cnn1)c1cccc(Cl)c1`: the “% Inhibition” value is recorded as -11% and the Z score was 1.71.
For `C=CCN(CC=C)C(=O)Cn1c(-c2cccc(OC)c2)csc1=O` the same measures were 1% and -0.15.
The like results for `COc1ccc(Nc2nn3c(c2NC(=O)c2ccc(C)cc2)N=C(C)CC3=O)cc1` were, in that order, -9% and 1.54.
The like results for `Cc1ccc(Cc2ccccc2C(=O)N2CCC[C@H]2CO)cc1F` were, in that order, -18% and 1.77.
For `CCn1c[n+](CC(=O)c2ccc(Cl)cc2Cl)cn1`, the “% Inhibition” value was -10% and the Z score came out at 0.89.
The like results for `C=CCCC(=O)N[C@@H](C)Cc1ccoc1` were, in that order, 0% and -0.05.
The like results for `O=C(c1ccccc1C(F)(F)F)N1C[C@@H]2C[C@H]1C(=O)N2c1ccccc1Cl` were, in that order, -9% and 1.78.
For `Cc1cc(=O)[nH]c(NCCn2cnc(-c3ccccc3)c2-c2ccc(C)o2)n1` the same measures were 10% and -0.88.
`Cc1nc(C[C@H]2CNCCO2)n(-c2ccc(Cl)cc2C)n1`: the “% Inhibition” value is reported as -7% and the Z score is 1.32.
Turning to `NC(=O)[C@H]1CCCN(Cc2ccc(NCc3ccc(F)cn3)cc2)C1`, the “% Inhibition” value is listed as -9% and the Z score is 1.18.
For `CN1CCN(C(=O)c2cc3c(s2)CCCCC3)CC1` the same measures were -13% and 1.84.
`O=C(CCN1CCC2(CCO2)CC1)NCc1cccc(Cl)c1`: the “% Inhibition” value was -10% and the Z score turned out to be 1.76.
Turning to `Cc1cc(F)ccc1NC(=O)CN1C[C@H]2C[C@H](O)[C@@H](O)C[C@H]2C1`, the “% Inhibition” value is -7% and the Z score is listed as 1.3.
For `O=C1NCCCCC1NC(=O)N1CCCC1c1nc2ccccc2s1` (stereo not given) the same measures were 6% and -0.75.
Take `Cc1nc(C)c2c(=O)n(-c3ccccc3)c(=O)[nH]c2n1`: the “% Inhibition” value is listed as -12% and the Z score came out at 1.61.
As to `COc1ccc(Cn2cc([C@H](CC(=O)NCc3ccccc3)c3ccc(Cl)c(C(F)(F)F)c3)c3ccccc32)cc1`, the “% Inhibition” value is recorded as 10% and the Z score is given as -1.25.
The like results for `FC(F)(F)Cn1nnnc1CN1CCC=C(c2ccccc2)C1` were, in that order, -12% and 1.71.
The like results for `Cc1cccc(NC(=O)[C@@H]2CCCN2S(=O)(=O)c2ccc3c(c2)NC(=O)CO3)c1C` were, in that order, 4% and -0.67.
